# Reference: PubChem BioAssay AID1347417 (National Center for Advancing Translational Sciences (NCATS), 2020)
# Screen size: about 120,000 compounds; about 5,300 (4.4%) were called active. Inconclusive results, whose numbers are uncertain, are shown with a selection of clear calls. Calls follow the shape of the dose curve; as a rule, active = well fitted inhibition curve with a large enough effect; inconclusive = small, poorly fitted or top-dose-only effect; inactive = no such curve, though single readings can be large or run the other way. Where the call is inconclusive, the potency comes from a doubtful curve fit.
# Assay: qHTS Primary assay for Inhibitors of Plasmodium falciparum Dd2 growth in vitro; also: nearly all actives have a fitted effect of over 65% in size
# Conditions: P. falciparum Dd2 growth, SYBR Green, 72 h; series mostly up to 28.9 µM
# In short: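 Readout: SYBR Green fluorescence, 485 nm excitation, 535 nm emission, after ~16 h lysis at 37C. Before that, Dd2-infected red cells (2.5% hematocrit) grew 72 h with compound, 29 uM top final concentration.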
# Potency is read from the fitted curve at half-maximal effect; tags tell the direction and shape of the fitted curve.
row,Structure (SMILES),Potency
1,O=C(Nc1cc(Cl)ccc1Cl)c1ccc2c(c1)N(Cc1cccc(Cl)c1)C(=O)c1ccccc1S2=O (stereo not given),active: 3.98 µM
2,CCc1noc(-c2cn(C3CCN(C(=O)c4sccc4C)C3)nn2)n1 (stereo not given),inactive
3,Cc1ccc(S(=O)(=O)NC[C@H]2OC[C@@H](NCc3ccc(S(C)(=O)=O)cc3)[C@@H]2O)cc1,inactive
4,Cc1ccc(CN2CCc3c(cc(C(=O)N4CCCN(C)CC4)n3C)C2)cc1,"inconclusive: 11.2 µM [inhibitor, single point]"
5,O=C1OCC2=C1C(c1ccc(Cl)cc1)NC(=O)N2CC(=O)N1CCC(Cc2ccccc2)CC1 (stereo not given),inactive
6,CC(C)c1ccc(C2CC(=O)Nc3cc4c(cc32)OCCO4)cc1 (stereo not given),"inconclusive: 10 µM [inhibitor, single point]"
7,O=C1CCCCCN1CCC(=O)N1CCn2nc(Cc3ccccc3)cc2C1,inactive
8,CCOc1ccccc1-c1noc(CSc2nnc(-c3ccccc3)n2-c2ccc(OC)cc2)n1,"inconclusive: 12.6 µM [inhibitor, single point]"
9,CCN1c2cc(C(=O)Nc3ccc(OC)c(Cl)c3)ccc2C(=O)N2CCCC21 (stereo not given),"inconclusive: 2.82 µM [inhibitor, partial curve, poor fit]"
10,Cc1ccc(CN[C@@H]2CO[C@H](CNS(C)(=O)=O)[C@H]2O)cc1,inactive
11,CC(=O)Nc1ccc(NC(=O)c2c(C)oc3ccn(Cc4ccc(F)cc4)c(=O)c23)cc1,"inconclusive: 0.398 µM [inhibitor, partial curve]"
12,O=C(c1ccc(F)c(F)c1)N1CCC[C@H]1c1nc(-c2ccccc2Cl)no1,inactive
13,CC1(C(=O)O)CCN(S(=O)(=O)c2ccsc2)CC1,inactive
14,O=C(Cc1c[nH]c2ncc(-c3ccccc3)cc12)NCc1ccncc1,"inconclusive: 3.16 µM [inhibitor, single point]"
15,CCCNC(=O)N1CC(c2nc(CCOc3cccc(C)c3)no2)C1,inactive
16,COc1ccc(NC(=O)CN2C(=O)NC(c3ccccc3Cl)C3=C2COC3=O)c(OC)c1 (stereo not given),"inconclusive: 17.8 µM [inhibitor, single point]"
17,O=C(Cn1nc2c(cc1=O)CCCC2)NCc1ccc(Cl)cc1,inactive
18,O=C(Cn1ncc2c3ccccc3n(Cc3ccccc3)c2c1=O)NCCc1ccc(Cl)cc1,"inconclusive: 10 µM [inhibitor, single point]"
19,CC(C)(C)CC(=O)N1CCC(O)(c2csc(CN3CCc4ccccc4C3)n2)CC1,inactive
20,CCC(CC)C(=O)N1CCC(N2C(=O)CCC2C(=O)NCc2ccccc2)CC1 (stereo not given),inactive
21,CN(C)CCNC(=O)c1ccc2c(c1)C1(CCN(CC3CC3)C1)CN2Cc1ccccc1 (stereo not given),"inconclusive: 1.58 µM [inhibitor, partial curve, poor fit]"
22,O=C(O)c1ccc(CN2C[C@@H]3OCC(=O)N(CC4CC4)[C@@H]3C2)cc1,"inconclusive: 31.6 µM [inhibitor, single point]"

row,Structure (SMILES),Potency
1,O=C(NC1CCCCC1)N[C@H]1[C@H](O)[C@@H](N2CCC(Cc3ccccc3)CC2)[C@@H]2OC[C@H]1O2,"inconclusive: 8.91 µM [inhibitor, partial curve, poor fit]"
2,Cc1ccc2ccc3cc(C(=O)N4CCN(c5ccccc5F)CC4)nc3c2[nH]1,"inconclusive: 10 µM [inhibitor, single point]"
3,Cc1ccc(Nc2c(-c3ccccn3)nc3ccc(Br)cn23)cc1,inactive
4,COc1ccccc1-c1cc(C(=O)N2CCN(c3ncccn3)CC2)nc2c1cnn2C,inactive
5,CNC(=O)CCn1ncc2cc(OC3CCc4cccc(-c5cnn(C)c5)c43)ccc21 (stereo not given),"inconclusive: 7.08 µM [inhibitor, full curve, poor fit]"
6,CCC(=O)N1CCc2cc(Br)cc(S(=O)(=O)N3CCCC(C(=O)Nc4ccc(C)c(F)c4)C3)c21 (stereo not given),"inconclusive: 4.47 µM [inhibitor, partial curve, poor fit]"
7,Cc1ccc(NC(=O)N[C@H]2C[C@@H](c3nc(-c4ccccn4)no3)N(C)C2)cc1,"inconclusive: 17.8 µM [inhibitor, single point]"
8,COCCC(=O)N[C@H]1CC[C@]2(C)CCC([C@H](C)C(=O)NCc3ccc(F)cc3)[C@H](O)[C@H]2[C@@H]1C (stereo not given in full),inactive
9,CCNc1cc(N2CCC(CCC(=O)NC3CCCC3)CC2)ncn1,"inconclusive: 20 µM [inhibitor, single point]"
10,C[C@]1(CO)[C@H]2Cc3sc(NC(=O)c4ccco4)nc3[C@@H](CC(=O)N3CCC(C(N)=O)CC3)[C@]2(C)CC[C@H]1O,"inconclusive: 7.94 µM [inhibitor, partial curve, poor fit]"
11,CCc1ccccc1Nc1nc(-c2cccc(OC)c2OC)no1,"inconclusive: 17.8 µM [inhibitor, single point]"
12,CCN(C(=O)CN1C(=O)c2ccccc2Sc2ccc(C(=O)OC)cc21)c1cccc(C)c1,active: 11.2 µM
13,CC[C@@H](NC(C)=O)C(=O)N1CCOc2c(cc(-c3cccs3)cc2OC)C1,"inconclusive: 0.0794 µM [inhibitor, full curve, poor fit]"
14,O=C(c1ccc(Cl)cc1)N1CCC2(CC1)C(=O)Nc1ccccc12,inactive
15,COc1ccc(OC)c(CCNC(=O)c2c(C)oc3ncn(CC(C)C)c(=O)c23)c1,"inconclusive: 17.8 µM [inhibitor, single point]"
16,COCC1CN(C(=O)CCc2c(C)nn(C)c2C)CC12CCNCC2 (stereo not given),inactive
17,CCC(CC)C(=O)N1c2ccccc2C(C)(c2ccccc2)CC1(C)C (stereo not given),"inconclusive: 10 µM [inhibitor, single point]"
18,Cc1ccccc1N1CCN(C2CCCN(C(=O)c3ccc(-c4ccco4)cc3)C2)CC1 (stereo not given),inactive
19,COc1ccc(-n2c(=O)c3c4c(sc3n(Cc3ccc(F)cc3)c2=O)CN(C(C)=O)CC4)c(OC)c1,"inconclusive: 0.282 µM [inhibitor, full curve, poor fit]"
20,CCc1ccc2oc(-c3ccc(C)c(NC(=O)c4cc([N+](=O)[O-])ccc4N4CCOCC4)c3)nc2c1,"inconclusive: 10 µM [inhibitor, single point]"
21,CN(C)C(=O)c1ccnc(-c2nnc3ccc(NCCc4ccccc4)nn23)c1,"inconclusive: 7.08 µM [inhibitor, partial curve, poor fit]"
22,CCOc1ccc(NC(=O)Nc2nnc(N3CCCCC3C)s2)cc1 (stereo not given),active: 11.2 µM

row,Structure (SMILES),Potency
1,Cc1ccc(NC(=O)Cn2c(-c3ccc(F)cc3)nc(C)c(CCO)c2=O)c(C)c1,"inconclusive: 7.08 µM [inhibitor, partial curve, poor fit]"
2,COc1ccc(N2CC3CCC(C2)N3CC2CCCC2)cc1,"inconclusive: 12.6 µM [inhibitor, partial curve, poor fit]"
3,COc1cccc(C(=O)N2CCCC(Cc3noc(-c4ccncc4)n3)C2)c1 (stereo not given),"inconclusive: 1.58 µM [inhibitor, full curve, poor fit]"
4,CCN(CC)c1ccc(C(=O)N2CCc3c([nH]c4ccccc34)C2c2ccc(F)cc2)cc1 (stereo not given),"inconclusive: 6.31 µM [inhibitor, partial curve, poor fit]"
5,COc1cc(CNC2CCC(O)CC2)ccc1OCC(O)CN1CCSCC1 (stereo not given),inactive
6,CC(=O)Nc1ccc(CN2CCCCC23Cc2ccccc2CN(C(=O)C(C)C)C3)cc1 (stereo not given),"inconclusive: 12.6 µM [inhibitor, single point]"
7,Cc1ccc(NC(=O)c2cccc3c(=O)c4c([nH]c23)CCCC4)c(C)c1,"inconclusive: 15.8 µM [inhibitor, single point]"
8,O=C(CC[C@@H]1CNC(=O)[C@@H]2C[C@H](NC(=O)Nc3ccc(F)cc3F)CN12)NCc1ccc(F)cc1,inactive
9,O=C(Cc1ccccn1)N1CCc2nc(-c3ccc(Cl)cc3)nc(-c3ccccc3)c2C1,inactive
10,CCOC(=O)C1CCN(C(=O)C2COC3(CCCC(C)C3)N2C(=O)c2ccccc2F)CC1 (stereo not given),"inconclusive: 10 µM [inhibitor, partial curve]"
11,COc1ccc(CN2C(=O)CO[C@H](c3ccc(NC(=O)c4cccs4)cc3)[C@H]2CO)cc1,inactive
12,CCOCCc1nnc(NC(=O)C(=O)c2cc(C)n(-c3ccc(C)c(C)c3)c2C)s1,"inconclusive: 0.141 µM [inhibitor, full curve, poor fit]"
13,Cc1ccc(C)c([S+](=O)([O-])c2nnn3c2nc(NCc2ccncc2)c2ccccc23)c1,"inconclusive: 6.31 µM [inhibitor, single point]"
14,O=C(C1CC1)N1CCCN(CCc2ccccc2)c2ccccc21,"inconclusive: 15.8 µM [inhibitor, single point]"
15,CCOc1ccc(CCNC(=O)c2ccc(-n3c(C)cc4c3CCCC4)cc2)cc1OCC,active: 7.94 µM
16,CCC1(N2CCN(C(=O)Cc3c[nH]c4ccccc34)CC2)CCN(S(C)(=O)=O)C1 (stereo not given),"inconclusive: 12.6 µM [inhibitor, single point]"
17,c1cc(-c2nnc3n2CCN(Cc2ccsc2)C3)ccn1,"inconclusive: 7.94 µM [inhibitor, partial curve, poor fit]"
18,CC(C)(C)CC(=O)Nc1cnc(-c2ccc(Cl)cc2)nc1,"inconclusive: 2.24 µM [inhibitor, partial curve, poor fit]"
19,COc1ccc(N2CCN(C(=O)COc3ccc(-c4nnc5n4CCCC5)cc3)CC2)cc1,active: 0.708 µM
20,Cc1cc(C)n(CCC(=O)N2CC(Oc3ccccc3-c3nc(C4CC4)no3)C2)n1,inactive
21,COCC(=O)N1CCc2c(sc3ncnc(N4CCN(C)CC4)c23)C1,"inconclusive: 20 µM [inhibitor, single point]"
